According to PubChem BioAssay AID743279 (National Center for Advancing Translational Sciences (NCATS), 2014):
The whole screen tested about 360,000 compounds, of which about 17,000 (4.7%) were called active. This list was built around the results that the source calls inconclusive (neither active nor inactive); the mix of calls is not that of the screen. No stated cut-off is given here; in the data, active means activity change below about -50%; inconclusive means mostly about -30% to -49%; inactive means weaker than that.

test: qHTS for Inhibitors of Inflammasome Signaling: IL-1-beta AlphaLISA Primary Screen; details: THP-1 LPS/ATP IL-1B secretion, 16 h; at 57.5 µM, stronger effect = lower value
Method in brief: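 Secreted IL-1B measured by AlphaLISA bead assay after 16 h compound exposure of THP-1 cells; compounds (final up to 57.5 uM) added 1 h before LPS (250 ng/mL) and ATP (1.25 mM) stimulation; lower signal means less secretion.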
On the % scale 0 is the no-effect control and ±100 the full control effect.

Activity change, inconclusive:
CCOC(=O)c1sc(NC(C)=O)nc1-c1ccccc1 -44.2%
COc1cc2c(cc1OC)CN(C(=O)c1ccc([N+](=O)[O-])o1)CC2 -49.2%
Cn1cccc1CC(=O)N/N=C/C(Cl)=C/c1ccccc1 -37.8%
CCN(CC)S(=O)(=O)c1ccc(N2CCCCC2)c(NC(=O)C2CSC3(C)CCC(=O)N23)c1 (stereo not given) -33%
Cn1cccc1Cc1nnc(SCC(=O)Nc2ccc3c(c2)OCO3)n1-c1ccc(F)cc1 -31.9%
COC(=O)c1sc(N)c(C(=O)OC)c1COC(=O)CCNS(=O)(=O)c1ccc(C)cc1 -45.6%
COc1ccc(C(=O)CC(=O)Nc2ccc([N+](=O)[O-])cc2)cc1 -31.9%
COc1ccccc1CCNC(=O)CSc1nnc2ccc(-c3ccncc3)nn12 -45.4%
CCCCCCn1c(=O)n2n(c1=O)[C@@H]1CN(S(=O)(=O)c3ccc(C)cc3)C[C@]1(O)[C@@H](OC(=O)NCc1ccco1)C2 -34.2%
Cc1cc(Nc2cccc(Cl)c2)nc(-c2ccccc2O)n1 -34.2%
O=C(NCc1ccccn1)Nc1ccc(Cl)cc1Cl -44.4%
CC1(C)N=C2C(=[N+]1[O-])CCC/C2=N\O -39.3%
COc1ccccc1NC(=O)Nc1ccc(CC#N)cc1 -38.4%
Nc1ccc(-c2nc3ccccc3s2)cn1 -34%
Fc1ccc(NC(=S)N/N=C/c2ccc(F)c(F)c2)c(F)c1 -35.4%
CCOC(=O)c1cc(-c2ccncc2)nc2c1c(C)nn2C -30.6%
CC(=O)N(Cc1cc2cc(C)ccc2[nH]c1=O)c1cccc(C)c1C -45.6%
CC(C)CC(NC(=O)c1cccs1)c1nnc(SCc2ccc(Cl)c(Cl)c2)n1C (stereo not given) -45%
CC1(C)C=Cc2c(c3c(c4c(=O)c(-c5ccc(O)cc5)coc24)OC(C)(C)CC3)O1 -37%
Brc1ccc(-c2csc(/N=C/N3CCOCC3)n2)cc1 -44.2%
COc1ccc(-c2cn(-c3ccc(Cl)cc3)c3[n+]2CCCCC3)cc1 -32.2%
CSc1ccccc1NC(=O)Nc1ccc(Cl)cc1 -47.5%
CCn1c(/C=C/c2ccccc2Cl)nc2ccccc2c1=O -30.5%
CCc1nc2ccc(C(=O)Nc3cccc(NS(C)(=O)=O)c3)cn2c1N(CCC(C)C)CCN(C)C -36%
O=C(NCCCOc1ccc([N+](=O)[O-])cc1Cl)OCc1ccccc1 -34.3%
O=C(COc1ccc(Cl)cc1)NCCC1=CCCCC1 -30.5%
O=C(O)c1ccc(N/N=C/c2ccnc3ccccc23)cc1 -34.1%
O=S(=O)(c1ccc(Cl)s1)N1CCCc2cccc(O)c21 -38%
COC(=O)[C@@]12C[C@@H](CC(=O)NCC3CCCCC3)C(=O)N(Cc3ccccc3)C1=CCC(C)(C)C2 -40.3%
CCC(C)N1CC(O)=C(c2nc3ccccc3[nH]2)C1=N (stereo not given) -31.8%
COc1ccc(NC(=O)c2sc3ncnc(N4CCN(c5ccccn5)CC4)c3c2C)cc1Cl -41%
OCCN(CCO)c1ccc(C(c2ccccc2Cl)c2ccc(N(CCO)CCO)cc2Cl)c(Cl)c1 -39.2%
COc1ccc(OC)c(-c2cc(C(=O)Nc3c(C)n(C)n(-c4ccccc4)c3=O)no2)c1 -30.3%
CCN1CCN(c2nnc(-c3ccc(C)cc3)c3ccccc23)CC1 -31.7%
N#C/C(=C\c1ccc(F)c(F)c1)C(=O)NC1CCCCC1 -48.3%
O=c1cc(C(F)(F)F)[nH]c2ccc(C(F)(F)F)cc12 -49.8%
CN(C)CCCNc1oc(-c2ccccc2Cl)nc1S(=O)(=O)c1ccc(F)cc1 -48%
CCOC(=O)C1CCN(C(=O)c2ccc(OCC(=O)Nc3cccc(C(F)(F)F)c3)c(OC)c2)CC1 -38.8%
C=CCN1C2CCCC1CC(NC(=O)Nc1cccc(C(C)=O)c1)C2 (stereo not given) -35%
CCN(CC)CCNC(=S)NC(=O)c1cn(-c2ccccc2)nc1-c1ccc(OC)cc1 -35.6%
COC(=O)[C@@]12C[C@@H](CC(=O)N3CCN(C(=O)c4ccco4)CC3)C(=O)N(Cc3cccc4ccccc34)C1=CCC(C)(C)C2 -30.9%
CCc1cc(Br)ccc1NC(=S)NCCc1ccccc1 -39.7%
COc1ccc(C2=Nc3ccccc3NC(=O)C2N(CCc2cc(OC)cc(OC)c2)C(C)=O)cc1 (stereo not given) -30.1%
COc1ccc(OC)c2sc(NC(=O)C3=COCCO3)nc12 -37.7%
Cn1c(SCC(=O)Nc2ccccc2F)nnc1-c1cccs1 -37.3%
CCc1cc(Cn2nc(-c3ccccc3)cc2C(=O)NCc2ccccc2OC)on1 -30.9%
COc1ccc2[nH]c(=O)c(CN(Cc3cccs3)S(=O)(=O)c3c(C)ccc4nsnc34)cc2c1 -32.1%
COc1ccc(C=NNC(=O)NN=Cc2ccc(OC)c(OC)c2)cc1OC -34.6%
CCN1CCN(c2ncc(C(=O)Nc3ccccc3C(=O)OC)c3ccccc23)CC1 -45.3%
Cc1ccc(-c2noc(CN(C(=O)c3ccc4c(c3)OCO4)C(C)C)n2)cc1 -38.6%
Cc1ccc(NC(=O)C(Cc2ccccc2)n2cccc2)cc1 (stereo not given) -43.6%

Activity change, inactive:
COc1cc(S(=O)(=O)N2CCCCC2)ccc1NC(=O)c1ccncc1 14.4%
Clc1ccc(Oc2nc3c(Cl)cccc3s2)cc1Cl 29.1%
CN(C)S(=O)(=O)c1cccc(NC(=O)c2cc(=O)[nH]c(=O)[nH]2)c1 12.5%
CC1(C)Cc2c(cnn2-c2ccc(F)cc2)C(NC(=O)c2ccc(=O)oc2)C1 (stereo not given) -1.49%
NC(=O)c1ccsc1NC(=O)COC(=O)Cc1ccccc1Cl -11.7%
CCOc1cc(S(=O)(=O)NCCc2cccc(C)c2)c(OCC)cc1-n1cnnn1 -22.6%
CNC(=O)COc1ncnc2scc(-c3ccc(F)cc3)c12 5.96%
C=CCOC(=O)CCCCCCCC 8.75%
CCS(=O)(=O)N1N=C(c2ccc(NS(C)(=O)=O)cc2)CC1c1ccccc1 (stereo not given) -5.82%
CC1(C)Cc2c(sc3[nH]c(=S)[nH]c(=O)c23)CO1 2.79%
CCOC(=O)C(C)n1cnc2c(nnn2-c2ccc(C)cc2)c1=O (stereo not given) 0%
O=C(Cc1ccc(NC(=O)C2CCN(C(=O)c3ccccc3)CC2)cc1)Nc1cccc(C(=O)N2CCCC2)c1 -18%
COc1ccc(CC(=O)OCC(=O)c2ccc(F)cc2)cc1 23.3%
O=C(NC1CCCCC1)C(c1ccco1)N(CCc1ccccc1)C(=O)C(F)(F)F (stereo not given) 17.4%
O=c1c(Cl)c(NCc2ccc(F)cc2)cnn1C12CC3CC(CC(C3)C1)C2 -10.6%
CCOC(=O)C1CCN(C(=O)c2cc(S(=O)(=O)N3CCCCCC3)ccc2OC)CC1 -0.237%
O=C(CCCN1C(=O)/C(=C/c2cccs2)SC1=S)Nc1ccccc1O 1.19%
CCn1c(NCc2cc(Cl)ccc2O)nc2ccccc21 -29.6%
C/C=C1\NC(=O)[C@H](C)NC(=O)[C@@H](NC(=O)[C@H](Cc2ccc(O)cc2)NC(=O)[C@@H](NC(=O)/C(C)=C/C)C(C)C)[C@@H](C)OC(=O)[C@H](CCCc2ccc(O)cc2)NC(=O)[C@@H](CCC(=O)OC)NC1=O 22.9%
CC(C)OC(=O)C1OC1(C)c1ccccc1 (stereo not given) 1.81%
COc1ccc(OCC(=O)Nc2ccccc2C(=O)Nc2ccc(C(=O)O)cc2)cc1 9.44%
CCC/C(O)=C1\C(=O)CCCC1=NCCc1c(C)[nH]c2ccccc12 10.3%
CCC12CN(C(=O)c3ccc(C)cc3)CC(CC)(CN(C(=O)c3ccc(C)cc3)C1)C2=O -1.85%
CC(=O)Nc1nc(-c2ccc3c(c2)CC(C)N3C(=O)C2CC2)c(C)s1 (stereo not given) -11.7%

Activity change, active:
Cc1nc(-c2ccc(NC(=O)c3ccccc3Br)cc2)cs1 -51.6%
Cc1ccc(N2NC(=O)/C(=C\c3cc4c(cc3[N+](=O)[O-])OCO4)C2=O)cc1C -105%
C#CCn1cc(/C=N/Nc2nc3ccccc3[nH]2)c2ccccc21 -92.4%
CC1(C)CC(=O)/C(=C\c2cccc([N+](=O)[O-])c2)C(C)(C)N1 -81.6%
CCN1CCc2c(sc(NC(=O)c3ccc(C(=O)c4ccccc4)cc3)c2C(N)=O)C1 -72.1%
O=C(N/N=C/C(Br)=C/c1ccccc1)c1cccnc1 -94.8%
CCC(CC)C(=O)c1c[nH]c(C(=O)NC2CCCCCC2)c1 -66.1%
Nc1c(C(=O)NCCN2CCOCC2)c2nc3ccccc3nc2n1CCc1ccccc1F -62.8%
O=C(Nc1ccc(Cl)cc1)C1Cc2c(-c3cccc(F)c3)ccnc2O1 (stereo not given) -63.8%
O=S(=O)(/N=S1\CC=CCN1S(=O)(=O)c1ccccc1)c1ccccc1 (stereo not given) -86.4%
